Results published in patent publication US20240261263A1, “COMPOUNDS AND METHODS TO SENSITIZE CANCER CELLS TO TYROSINE KINASE INHIBITORS” (Da Zen Theranostics, Inc., priority 2016, published 2024).
Read-outs that look alike come from different tables or passages of the source.

Assays:
[1] = test system: 95D (Met); assay: Crystal Violet cell proliferation assay, 95D; type: cell-based, human; details: single agent, 72 h, mean ± SEM
[2] = test system: H1975; assay: Crystal Violet cell proliferation assay, H1975; details: Homo sapiens, NCI-H1975, 72 h, read-out: IC50 H1975 Mean (95% CI), drug alone, 72 h
[3] = test system: YTMLC; assay: Crystal Violet cell proliferation assay, YTMLC; type: cell-based, human; details: single agent, 72 h, mean ± SEM
[4] = test system: H446; assay: Crystal Violet cell proliferation assay, H446; type: cell-based, human; details: single agent, 72 h, mean ± SEM, read-out: IC50 SCLC H446
[5] = test system: A549/DDP (Cisplatin Resistant); assay: Crystal Violet cell proliferation assay, A549/DDP; details: Homo sapiens, A549/DDP, 72 h, read-out: IC50 A549/DDP (Cisplatin Resistant), single agent, 72 h, mean ± SEM
[6] = test system: A549 parental; assay: Crystal Violet cell proliferation assay, A549; details: Homo sapiens, A549, 72 h, read-out: IC50 A549 parental, single agent, 72 h, mean ± SEM
[7] = test system: 95C (Non-Met); assay: Crystal Violet cell proliferation assay, 95C; type: cell-based, human; details: Homo sapiens; single agent, 72 h, mean ± SEM

With N.N.[Cl][Pt][Cl] [CIS, Cisplatin] the IC50 [1] was greater than 100 µM.
C#Cc1cccc(Nc2ncnc3cc4c(cc23)OCCOCCOCCO4)c1 [Icotinib] showed an IC50 [2] of 4.8 µM.
Compound CCC(C)(C)C(=O)O[C@H]1C[C@@H](C)C=C2C=C[C@H](C)[C@H](CC[C@@H]3C[C@@H](O)CC(=O)O3)[C@H]21 [SIM, Simvastatin] has an IC50 ([3]; Homo sapiens) of 10.6 ± 1 µM, an IC50 ([4]; Homo sapiens, NCI-H446) of 4.3 ± 1.3 µM and an IC50 [5] of 5.3 ± 1.1 µM. It also gave an IC50 [6] of 4.2 ± 1.2 µM, an IC50 ([1]; Homo sapiens) of 1.7 ± 1 µM and an IC50 [7] of 2 ± 1.2 µM.
In the case of DZ1-Cisplatin ester, the IC50 [3] is reported as 2.2 ± 1 µM and the IC50 [4] is reported as 23.4 ± 1 µM.
